Reference: paper PMC4336329 (PLoS ONE, 2015)
Among all 310,000 compounds or so, about 2,200 (0.71%) showed an effect of 50% or more. Effects have a minus sign here. The list shows a part of the results.

Molecular target: human ether-à-go-go-related gene (hERG) potassium channel (human, UniProt Q12809)
Assay: primary screen, population patch clamp on CHO cells stably expressing hERG

human ether-à-go-go-related gene (hERG) potassium channel, sequence (Q12809 whole entry, looked up): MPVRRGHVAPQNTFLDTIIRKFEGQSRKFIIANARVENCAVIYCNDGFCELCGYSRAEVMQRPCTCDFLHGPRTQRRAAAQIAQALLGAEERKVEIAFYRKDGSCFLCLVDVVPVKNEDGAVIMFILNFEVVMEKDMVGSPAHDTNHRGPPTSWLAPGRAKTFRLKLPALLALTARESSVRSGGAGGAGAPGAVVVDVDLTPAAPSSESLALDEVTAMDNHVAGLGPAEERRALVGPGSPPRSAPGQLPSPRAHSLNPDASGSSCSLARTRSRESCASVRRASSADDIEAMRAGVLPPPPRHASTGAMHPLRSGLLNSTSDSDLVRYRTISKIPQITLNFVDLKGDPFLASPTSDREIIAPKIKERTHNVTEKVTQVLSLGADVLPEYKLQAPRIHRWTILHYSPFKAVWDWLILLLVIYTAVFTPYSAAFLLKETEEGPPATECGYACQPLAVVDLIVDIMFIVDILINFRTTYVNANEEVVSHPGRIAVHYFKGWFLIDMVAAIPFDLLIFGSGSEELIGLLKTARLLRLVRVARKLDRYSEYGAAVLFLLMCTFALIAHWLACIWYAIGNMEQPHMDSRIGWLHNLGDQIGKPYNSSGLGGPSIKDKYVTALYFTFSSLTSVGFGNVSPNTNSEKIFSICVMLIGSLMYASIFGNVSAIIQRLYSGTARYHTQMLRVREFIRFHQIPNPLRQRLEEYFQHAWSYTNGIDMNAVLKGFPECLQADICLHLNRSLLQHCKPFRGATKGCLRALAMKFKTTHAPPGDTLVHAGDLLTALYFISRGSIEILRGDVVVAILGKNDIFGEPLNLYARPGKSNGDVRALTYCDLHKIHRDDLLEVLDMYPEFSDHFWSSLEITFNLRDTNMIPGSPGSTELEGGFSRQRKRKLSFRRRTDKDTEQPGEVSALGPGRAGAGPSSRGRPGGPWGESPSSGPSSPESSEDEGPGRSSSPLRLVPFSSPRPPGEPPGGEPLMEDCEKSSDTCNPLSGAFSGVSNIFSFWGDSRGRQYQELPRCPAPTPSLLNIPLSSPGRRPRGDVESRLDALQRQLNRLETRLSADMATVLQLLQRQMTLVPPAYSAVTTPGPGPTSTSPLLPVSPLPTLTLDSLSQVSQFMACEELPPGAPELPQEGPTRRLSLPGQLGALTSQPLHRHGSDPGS

Row | Structure (SMILES) | hERG current change (%, negative = inhibition) at 1uM
1 | COC(=O)/C=c1\[nH]c2nnc(C)n2c1=O | 11.3%
2 | COc1cc([N+](=O)[O-])cc2cc(C(=O)N3CCN=C3c3ccccc3)c(=O)oc12 | 10.7%
3 | COc1ccc(/C=C2/SC(=O)NC2=O)cc1 | 8.64%
4 | O=C(NCc1ccccc1)c1cncc(Br)c1 | 3.55%
5 | Cc1cccc(C)c1NC(=O)/C(=C/c1ccco1)c1ccccc1 | 1.83%
6 | CC(C)(C)SCCNC(=O)CN1C(=O)c2cccc3cccc1c23 | 12.7%
7 | Cc1cccc(NC(=S)NNC(=O)c2ccc(Br)o2)c1 | 13.8%
8 | Cc1ccc(NC(=S)N2CCSC2c2cccs2)cc1 (stereo not shown) | 7.06%
9 | Cc1nonc1OCCNCc1c(C(=O)N(C)C)nc2ccc(Cl)cn12 | 12.7%
10 | CN1CCN(C(=O)CSc2nnc(COc3ccc(Cl)cc3)o2)CC1 | 10.7%
11 | Cc1cccc2cc(CN(Cc3ccc(F)cc3)Cc3nnnn3C3CCCC3)c(=O)[nH]c12 | -3.82%
12 | Cn1c(=O)c(=O)n(C)c2cc(S(=O)(=O)N3CCCC3C(=O)Nc3ccccc3F)ccc21 (stereo not shown) | -13.2%
13 | COc1cc(C(=O)Nc2ccc(C(N)=O)cc2)c([N+](=O)[O-])cc1OC | 15.6%
14 | O=C(CC(NC(=O)c1ccccc1Cl)c1ccccc1)NC1=NCCS1 (stereo not shown) | 5.19%
15 | CNc1n[nH]c(=S)s1 | 16.1%
16 | CN1CCN(c2ccc(C(=O)c3ccccc3)cc2[N+](=O)[O-])CC1 | -4.33%
17 | CCC(=O)c1ccc(OC(=O)N2CCOCC2)cc1 | 8.03%
18 | COc1cc2c(cc1OC)/C(=C/c1ccc(Cl)cc1)C(=O)OC2 | -5.29%
19 | O=C(CSc1nccn1Cc1ccco1)Nc1ccccc1C(F)(F)F | 9.76%
20 | CCc1cc2c(=O)c(-c3cscn3)coc2c(CN(C)C)c1O | 15.2%
21 | COc1ccc(/C=C2\CCC(C3CCCC3)C2=O)cc1 (stereo not shown) | 14.8%
22 | O=C(CNC(=O)c1ccco1)OCC(=O)c1ccc(Br)cc1 | 15.1%
23 | Br.CCc1nnc2n1N=C(c1cccc([N+](=O)[O-])c1)CS2 | -1.09%

Row | Structure (SMILES) | hERG current change (%, negative = inhibition) at 1uM
24 | O=C(N/N=C\c1ccc(-c2ccccc2[N+](=O)[O-])o1)C1COc2ccccc2O1 (stereo not shown) | 7.03%
25 | O=C(CCc1ccccc1)NNC(=O)c1ccc(Cl)cc1 | 10.9%
26 | Cc1ccc(S(=O)(=O)NC(C)C(c2cccs2)N2CCN(C)CC2)cc1 (stereo not shown) | 2.95%
27 | Cn1nnnc1SCC(=O)c1ccc(Br)s1 | 12.8%
28 | Cc1c(O)cc2n(c1=O)-c1ccccc1C2(C)C | 10.6%
29 | CC(=O)N1c2c(cc(Br)cc2S(=O)(=O)NCc2cccnc2)CC1C (stereo not shown) | 16.3%
30 | Cc1ccc(-c2cc(-c3ccc(C)o3)nc(N)c2C#N)cc1 | 4.41%
31 | Cc1ccc2c(c1)nnn2C1CCN(CC(=O)Nc2ccc3c(c2)OCCO3)CC1 | -29.1%
32 | CC(NC(=O)c1ccccc1SCC(=O)N1CCCC1)c1ccccc1 (stereo not shown) | -18.6%
33 | COc1ccc(NC(=O)CS(=O)(=O)c2ccc(F)cc2)cc1 | 10.6%
34 | Cc1ccccc1CNc1ncnc2cc(Cl)ccc12 | 7.99%
35 | CC(=O)c1cccc(NS(=O)(=O)c2csc(C(N)=O)c2)c1 | 17%
36 | O=C(OCC(=O)N1CCN(C(=O)c2ccco2)CC1)c1cccc(F)c1 | 0.0396%
37 | Fc1ccccc1/C=N/n1cc(-c2ccccc2)[nH]c1=S | 11.9%
38 | O=C(NCc1ccc(F)cc1Cl)C1CCN(S(=O)(=O)N2CCCCC2)CC1 | 0.909%
39 | CC1=C(C(=O)OC(C)(C)C)C(c2ccc(Br)cc2)NC(=O)N1CCCC(=O)O (stereo not shown) | 13.4%
40 | Cc1cc(NC(=O)CSc2nnc(NCc3ccccc3)s2)no1 | 8.62%
41 | C=C(C)Cn1c(SCC(=O)O)nc2c1c(=O)[nH]c(=O)n2C | 4.13%
42 | OC[C@H]1OC(O)[C@H](O)[C@@H](O)[C@H]1O (stereo partly shown) | 11.1%
43 | COc1cc(NC(=O)COc2ccc(Cl)cc2)ccc1-c1cc2ccccc2oc1=O | 15.3%
44 | COc1ccc(-n2c(SCC(=O)N/N=C(\C)c3cccnc3)nc3ccccc3c2=O)cc1 | 8.92%
45 | CCOCCOC(=O)c1[nH]c2c(c1C)C(=O)CC(c1cccs1)C2 (stereo not shown) | -1.53%
46 | CC(NC(=O)CCCN1C(=O)c2ccccc2C1=O)c1ccc2c(c1)CCCC2 (stereo not shown) | 14.7%
